Reference: the supplement of paper PMC11417369
Some of the results follow.

tested on: PfHDP1 homeodomain (GST-tagged); experiment: gcPBM binding intensity (ln(normalized median fluorescence intensity)); higher = stronger DNA binding
How it was run: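 Binding intensity is defined as the maximum Masliner-normalised natural-log median intensity across replicate spots for either probe orientation. It was measured on an Agilent 4 × 180k array of primer-extended double-stranded 36-bp intergenic genomic probes and negative controls, to which GST-tagged P. falciparum DNA-binding domains made in E. coli were applied for 1 h in 1× PBS with 1% milk, 0.2 mg/ml BSA, 0.5% salmon testes DNA and 0.03% Triton X-100. Detection was by Alexa488 anti-GST antibody and scanning at 488 nm.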

Row | Sequence | gcPBM binding intensity (ln)
1 | CATTCAAAGAAAAACTGTACGTGTAGCAAACGTCAT [XGTACX_site2576] | 6.95
2 | TTCTTTTTAAATTACACACACATATATATCTGTATA [CACACA_site5863] | 7.19
3 | TCATTATTAATATGTAGTACATTATATGATATGTAT [XGTACX_site8978] | 6.42
4 | ATGAACATACAATATACACACATATAGATTTATATT [CACACA_site6524] | 6.77
5 | TAAAGGATTTTCGAAGCATGCCACCTGTGACATACT [TGCATGCA_site130] | 5.85
6 | ATATTGTATTATCTTTATGTACCAAAAAAAAAAAAA [CACACA_negctrl_site1036] | 6.26
7 | ATATCAATATAAAGTACACACTATAGTATGTATTAT [CACACA_site5286] | 6.65
8 | ATTATTAATAATTGTGTGCACAAATATTTATATGCT | 10.6
9 | TAGTTAATATGAAAAAGTACACGTTTCAGTGAAAGT [XGTACX_site7402] | 6.53
10 | ATATATACATATGGGTGTACATATGCACATATATAT [XGTACX_site8437] | 9.03
11 | TTTAAAATAAATATTACACACAAAATATTAAAAAGC [CACACA_site2129] | 6.76
12 | AAAAAAAAAAAAACTTGTACATGTGATATTATCTAT [XGTACX_site6169] | 6.38
13 | ATTTAATACATACATTCACACACACTAATTGTATAT [CACACA_site9361] | 6.98
14 | TCAAAGTAGGCTTATATGCACACTTTGAAATATTAT [CACACA_site1920] | 9.35
15 | TTAAATGTTCTATATACATGCAATGATATGTTTCTG [TGCATGCA_site317] | 6.04
16 | AAATTAATATAAATATGTACATAAATAATAAAATAT [XGTACX_site6131] | 6.63
17 | GTTTTCCTTCCCTTTCCCCCTCAAAAAAAGGGAACA [TGCATGCA_negctrl_site436] | 7.36
18 | AAGGAATAAAGAAGTTGTACATAATTTGTATCATCC [XGTACX_site3891] | 6.63
19 | ATTTTTCAAACTTTAGTGCAATGAAAGAAAGAAAAA | 8.93
20 | GGAGGTTGTTATAAAAGTACAAAAAGTTGCAATTTT [XGTACX_site7351] | 10.7
21 | TAAAATTTTTTATTCACACAAATATAGTTATATATA [CACACA_site5348] | 6.13
22 | ATAAGAAGGAACATAAATATATCATAAAAAAAAAAA [GTGCAC_negctrl_site169] | 6.39

Row | Sequence | gcPBM binding intensity (ln)
23 | ATAACACAAAAAGGGGGTACAATAAAAAAAAAAAAA [XGTACX_site1652] | 6.97
24 | TATTTATATAGGTATACACACATACAAATATGTAAA [CACACA_site7705] | 6.45
25 | AATACCTATAATACAACACACAAGTAATATAAACCT [CACACA_site7661] | 6.81
26 | TCATTATATACAATATGTACATATATGTAATAAACA [XGTACX_site4611] | 6.77
27 | AAAGAATTCATTATTTGTACTTAAATAAATAAATAA [XGTACX_site5932] | 6.23
28 | AGAAAGAAAGAATACACACACACATATATATATATC [CACACA_site3744] | 6.95
29 | AGCACACGCAGACACACACACACACGCACACGCACA [CACACA_site6306] | 7.07
30 | AAAGGATATGCTTCATATATATATTGTTATATATGT [CACACA_negctrl_site1672] | 6.21
31 | TAGATAAAATGAACATGTACTCATCTTAATATATAT [XGTACX_site34] | 6.23
32 | CAATATGGAAAATAAAGTACGCACACAAAAATTCTC [XGTACX_site4793] | 7.29
33 | TACACCCACATATATATACACACTTTTATTTAAATA [CACACA_site1596] | 7.08
34 | AAAAAAAATAATGTTGCACACAACAACAAACAAAAA [CACACA_site3290] | 9.19
35 | AATATATATATATGTGCACACATATATAATATGTAT [CACACA_site716] | 9.79
36 | ATACTATAATATAAAACACACATATGTACCTTCTAA [CACACA_site7323] | 6.67
37 | ATTATTTAAATTTAACGTACGGAATAAGACATAGAT [XGTACX_site8622] | 7.71
38 | TAGTAACTTGTATTCACACAAATTATATTATATTAC [CACACA_site5041] | 6.56
39 | TATATAATATATAAATGTACTTTTGTCTTATATGAA [XGTACX_site7211] | 6.32
40 | TTTTTTTTTTTTTTTTTTTTACAGAAAAATATTAAA [CACACA_negctrl_site128] | 5.99
41 | AATCATTAAAGCATAATGTTTATGATCAATATGAAA [CACACA_negctrl_site887] | 6.26
42 | TTCAGGTAATAACATTGTACATGTGTATCATAATTA [XGTACX_site6740] | 6.62
43 | TTATTCTAAAAATATACACACAACAACAAACAAACA [CACACA_site1543] | 7.31
44 | ATGTGTTTCTTCAATTGTACTAAAAGGTATATATTG [XGTACX_site4608] | 6.68
